{
  "source": "patent US20250127918A1",
  "about": "“SITE-SELECTIVE CONJUGATION OF A PHARMACEUTICAL AGENT TO AN ANTIBODY USING AN AFFINITY PEPTIDE” (priority 2023, published 2025)",
  "assay_type_in_all_cases": "biochemical",
  "key": {"[1]": {"target": "T1, Trastuzumab (Homo sapiens, UniProt P01857, D239E/L241M)", "T1 construct": "purchased Syd Labs Inc; MedChemExpress LLC; Bio X Cell", "T1 sequence (P01857 with tags, fused parts or gaps isoform P01857-1 D239E/L241M, other chains not shown)": "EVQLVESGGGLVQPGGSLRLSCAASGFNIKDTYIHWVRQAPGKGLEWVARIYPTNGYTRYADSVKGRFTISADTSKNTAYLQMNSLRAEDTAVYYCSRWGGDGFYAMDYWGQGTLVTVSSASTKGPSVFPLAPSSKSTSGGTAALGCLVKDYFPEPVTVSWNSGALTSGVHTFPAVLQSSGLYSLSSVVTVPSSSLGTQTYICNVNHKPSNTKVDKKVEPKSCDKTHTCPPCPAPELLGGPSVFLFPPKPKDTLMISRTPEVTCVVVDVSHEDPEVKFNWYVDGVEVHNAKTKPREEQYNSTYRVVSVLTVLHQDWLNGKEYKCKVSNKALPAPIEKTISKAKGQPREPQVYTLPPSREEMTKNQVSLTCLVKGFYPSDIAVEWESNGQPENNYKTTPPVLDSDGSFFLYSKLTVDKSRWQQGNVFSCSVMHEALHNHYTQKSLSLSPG", "assay": "Conjugation of electrophile-attached Z33 reagents to trastuzumab, analyzed by SDS-PAGE", "conditions": "24 h", "method": "Determination by SDS-PAGE: Band densitometry was calculated using ImageJ software. Densitometry-based yields were calculated based on the product: starting material protein ratio in lanes and standardized based on molecular weight.\nReactions were performed on a 20 μL scale using 0.2 mL PCR tubes (FIG. 60). First, the electrophile-attached Z33 peptide reagent was dissolved in water to prepare a 1 mg/mL solution. […] The resulting reaction solution was quenched with a 100 mM glycine solution and analyzed by SDS-PAGE.\nThe reaction was performed on a 210 μL scale using a 1.5 mL microcentrifuge tube. First, PEL-09 was dissolved in water to prepare a 2 mg/mL solution. […] The reaction mixture was diluted to 400 μL with citrate buffer (100 mM, pH 2.7) and filtered through an Amicon® filter (0.5 mL, 50KMWCO) at 14000 ref for 7 minutes. After filtration, 400 μL of citrate buffer (100 mM, pH 2.68) was added and centrifuged again, followed by centrifugation with 400 μL of Tris (100 mM, pH 8.1) buffer (total of 3 centrifugations). Finally, the remaining solution (roughly 20 μL) on the Amicon® filter was transferred to a microcentrifuge tube, and the Amicon® filter was washed twice with 40 μL of Tris buffer (100 mM, pH 8.1). The obtained solution was analyzed by LC-MS (FIG. 49, Table 6) and SDS-PAGE (FIG. 50, Table 5).\nThe reaction solution corresponding to 3.5 μg of IgG was taken into a PCR tube and diluted with Tris buffer (100 mM, pH 8.1) to a final volume of 3 μL. Then, Laemmli sample buffer (BIO-RAD, 2×+5v/v % 2-mercaptoethanol, 3 μL) was added, and the mixture was heated at 70° C. for 5 minutes. After returning the reaction solution to room temperature, 2 μL was loaded onto an SDS-Gel. Subsequently, electrophoresis, washing, staining, and analysis were performed using the methods described in General Information Section.\nThe purified tirzepatide-transfer reagent was then evaluated for its reactivity against human IgG trastuzumab."}, "[2]": {"target": "T1, Trastuzumab", "assay": "Bioconjugation handle / GLP1 transfer to trastuzumab, analyzed by Q-ToF LC-MS", "conditions": "100 mM HEPES pH8.7; large scale reaction for entry 15, room temperature, 24 h"}, "[3]": {"target": "T1, Trastuzumab", "assay": "Bioconjugation handle / GLP1 transfer to trastuzumab, analyzed by Q-ToF LC-MS", "conditions": "100 mM HEPES pH8.7; large scale reaction for entry 15, room temperature, 24 h", "method": "The conversion rate for each reaction was calculated by one of the following methods. Determination by LC-MS: Reported yields based on LC-MS spectra were determined by extracting the total ion current (TIC) spectra of all protein-containing species in the chromatogram utilizing Agilent MassHunter 6.0 software with BioConfirm package. These extracted chromatograms were deconvoluted utilizing a maximum entropy algorithm and abundance of each species determined using total ion count.\nA reaction solution corresponding to 9.0 μg of IgG was taken into a PCR tube and diluted with Tris buffer (100 mM, pH 8.1) to a final volume of 6 μL. […] Afterward, DTT (200 mM in water, 2 μL) was added, and the mixture was further incubated at 37° C. for 1 hour. Finally, the solution was diluted to a volume of 40 μL with a mixture of water and acetonitrile (95:5), and 8 μL of the diluted solution was injected into LC-MS.\nReactions were performed on a 20 μL scale using 0.2 mL PCR tubes (FIG. 61). First, the electrophile-attached Z33 peptide reagent was dissolved in water to prepare a 2 mg/mL solution. […] The resulting reaction solution was quenched with a 100 mM glycine buffer of 100 mM Tris buffer and analyzed by LC-MS. […]\nReactions were performed on a 20 μL scale using 0.2 mL PCR tubes (FIG. 61). […] The resulting reaction solution was quenched with a 100 mM Tris buffer and analyzed by LC-MS (FIG. 53, Table 8).", "remark": "listed apart in the source"}, "[4]": {"conditions": "20 mM HEPES pH8.5, 37° C., 8 equivalents of the reagent"}, "[5]": {"conditions": "100 mM HEPES pH8.7, large scale reaction, room temperature"}, "[6]": {"conditions": "100 mM HEPES pH8.5, trastuzumab 10 uM, reagent 200 uM, room temperature"}, "[7]": {"conditions": "100 mM phosphate pH7.2, trastuzumab 10 uM, reagent 200 uM, room temperature"}, "[8]": {"conditions": "20 mM phosphate pH7.2, reagent 200 uM, room temperature"}, "[9]": {"conditions": "20 mM HEPES pH8.5 with 200 mM NaCl, reagent 200 uM, room temperature"}},
  "data": [
    {"substance": "02 (FNMQQQRRFYEALHDPNLNCEQRNAKIKSIRDD; electrophile linker attached) [compound 02]", "values": [
      {"measurement": "Heavy chain total conversion", "setting": "[1]; [4]", "value": 50, "unit": "%"},
      {"measurement": "Light chain total conversion", "setting": "[1]; [4]", "value": 20, "unit": "%"}
    ]},
    {"substance": "09 (FNMQQQRRFYEALHDPNLNCEQRNAKIKSIRDD; N-terminal 5-azido-pentanoyl; homocysteine; electrophile; MOD_RES 20 homocysteine) [compound 09]", "values": [
      {"measurement": "Heavy chain total conversion", "setting": "[2]", "value": 95, "unit": "%"},
      {"measurement": "Heavy chain total conversion", "setting": "[1]; [5]", "value": 95, "unit": "%<"},
      {"measurement": "Light chain total conversion", "setting": "[1]; [5]", "value": "<1", "unit": "%"},
      {"measurement": "Light chain total conversion", "setting": "[3]", "value": "<1", "unit": "%"}
    ]},
    {"substance": "12 (FNMQQQRRFYEALHDPCLNEEQRNAKIKSIRDD; electrophile linker attached) [compound 12]", "values": [
      {"measurement": "Heavy chain total conversion ratio (+1/+2/+3)", "setting": "[1]; [6]", "value": "100/0/0"},
      {"measurement": "Light chain total conversion", "setting": "[1]; [6]", "value": "<1", "unit": "%"},
      {"measurement": "Heavy chain total conversion ratio (+1/+2/+3)", "setting": "[1]; [7]", "value": "100/0/0"},
      {"measurement": "Light chain total conversion", "setting": "[1]; [7]", "value": "<1", "unit": "%"}
    ]},
    {"substance": "04 (FNMQQQRRFYEALHDPNLNCEQRNAKIKSIRDD; electrophile linker attached) [compound 04]", "values": [
      {"measurement": "Heavy chain total conversion", "setting": "[1]; [8]", "value": 37, "unit": "%"},
      {"measurement": "Light chain total conversion", "setting": "[1]; [8]", "value": "<1", "unit": "%"},
      {"measurement": "Heavy chain total conversion", "setting": "[1]; [6]", "value": 49, "unit": "%"},
      {"measurement": "Light chain total conversion", "setting": "[1]; [6]", "value": "<1", "unit": "%"}
    ]},
    {"substance": "06 (FNMQQQRRFYEALHDPNLNCEQRNAKIKSIRDD; homocysteine; electrophile linker attached; MOD_RES 20 homocysteine) [compound 06]", "values": [
      {"measurement": "Heavy chain total conversion", "setting": "[1]; [6]", "value": 95, "unit": "%<"},
      {"measurement": "Light chain total conversion", "setting": "[1]; [6]", "value": "<1", "unit": "%"},
      {"measurement": "Heavy chain total conversion", "setting": "[1]; [7]", "value": 88, "unit": "%"},
      {"measurement": "Light chain total conversion", "setting": "[1]; [7]", "value": "<1", "unit": "%"}
    ]},
    {"substance": "03 (FNMQQQRRFYEALHDPNLNCEQRNAKIKSIRDD; electrophile linker attached) [compound 03]", "values": [
      {"measurement": "Heavy chain total conversion", "setting": "[1]; [9]", "value": 81, "unit": "%"},
      {"measurement": "Light chain total conversion", "setting": "[1]; [9]", "value": "<1", "unit": "%"}
    ]},
    {"substance": "08 (FNMQQQRRFYEALHDPNLNCEQRNAKIKSIRDD; homocysteine; electrophile linker attached; MOD_RES 20 homocysteine) [compound 08]", "values": [
      {"measurement": "Heavy chain total conversion", "setting": "[1]; [6]", "value": 89, "unit": "%"},
      {"measurement": "Light chain total conversion", "setting": "[1]; [6]", "value": "<1", "unit": "%"},
      {"measurement": "Heavy chain total conversion", "setting": "[1]; [7]", "value": 17, "unit": "%"},
      {"measurement": "Light chain total conversion", "setting": "[1]; [7]", "value": "<1", "unit": "%"}
    ]},
    {"substance": "07 (FNMQQQRRFYEALHDPNLNCEQRNAKIKSIRDD; homocysteine; electrophile linker attached; MOD_RES 20 homocysteine) [compound 07]", "values": [
      {"measurement": "Heavy chain total conversion", "setting": "[1]; [6]", "value": 89, "unit": "%"},
      {"measurement": "Light chain total conversion", "setting": "[1]; [6]", "value": "<1", "unit": "%"},
      {"measurement": "Heavy chain total conversion", "setting": "[1]; [7]", "value": 17, "unit": "%"},
      {"measurement": "Light chain total conversion", "setting": "[1]; [7]", "value": "<1", "unit": "%"}
    ]},
    {"substance": "14 (FNMQQQRRFYEALHDPNLNEEQRCAKIKSIRDD; electrophile linker attached) [compound 14]", "values": [
      {"measurement": "Heavy chain total conversion ratio (+1/+2/+3)", "setting": "[1]; [6]", "value": "100/0/0"},
      {"measurement": "Light chain total conversion", "setting": "[1]; [6]", "value": "<1", "unit": "%"},
      {"measurement": "Heavy chain total conversion ratio (+1/+2/+3)", "setting": "[1]; [7]", "value": "100/0/0"},
      {"measurement": "Light chain total conversion", "setting": "[1]; [7]", "value": "<1", "unit": "%"}
    ]},
    {"substance": "01 (FNMQQQRRFYEALHDPNLNCEQRNAKIKSIRDD; linkage structure for IgG conjugation) [compound 01]", "values": [
      {"measurement": "Heavy chain total conversion", "setting": "[1]; [6]", "value": 77, "unit": "%"},
      {"measurement": "Light chain total conversion", "setting": "[1]; [6]", "value": "<1", "unit": "%"},
      {"measurement": "Heavy chain total conversion", "setting": "[1]; [7]", "value": 49, "unit": "%"},
      {"measurement": "Light chain total conversion", "setting": "[1]; [7]", "value": "<1", "unit": "%"}
    ]},
    {"substance": "10 (CFNMQQQRRFYEALHDPNLNEEQRNAKIKSIRDD; electrophile linker attached) [compound 10]", "values": [
      {"measurement": "Heavy chain total conversion ratio (+1/+2/+3)", "setting": "[1]; [6]", "value": "90/10/0"},
      {"measurement": "Light chain total conversion", "setting": "[1]; [6]", "value": "<1", "unit": "%"},
      {"measurement": "Heavy chain total conversion ratio (+1/+2/+3)", "setting": "[1]; [7]", "value": "100/0/0"},
      {"measurement": "Light chain total conversion", "setting": "[1]; [7]", "value": "<1", "unit": "%"}
    ]},
    {"substance": "13 (FNMQQQRRFYEALHDPNLNECQRNAKIKSIRDD; electrophile linker attached) [compound 13]", "values": [
      {"measurement": "Heavy chain total conversion ratio (+1/+2/+3)", "setting": "[1]; [6]", "value": "100/0/0"},
      {"measurement": "Light chain total conversion", "setting": "[1]; [6]", "value": "<1", "unit": "%"},
      {"measurement": "Heavy chain total conversion ratio (+1/+2/+3)", "setting": "[1]; [7]", "value": "100/0/0"},
      {"measurement": "Light chain total conversion", "setting": "[1]; [7]", "value": "<1", "unit": "%"}
    ]},
    {"substance": "15 (FNMQQQRRFYEALHDPNLNEEQRNAKIKSICDD; electrophile linker attached) [compound 15]", "values": [
      {"measurement": "Heavy chain total conversion ratio (+1/+2/+3)", "setting": "[1]; [6]", "value": "100/0/0"},
      {"measurement": "Light chain total conversion", "setting": "[1]; [6]", "value": "<1", "unit": "%"},
      {"measurement": "Light chain total conversion", "setting": "[1]; [7]", "value": "<1", "unit": "%"}
    ]},
    {"substance": "05 (FNMQQQRRFYEALHDPNLNCEQRNAKIKSIRDD; homocysteine; electrophile linker attached; MOD_RES 20 homocysteine) [compound 05]", "values": [
      {"measurement": "Heavy chain total conversion", "setting": "[1]; [6]", "value": 95, "unit": "%<"},
      {"measurement": "Light chain total conversion", "setting": "[1]; [6]", "value": "<1", "unit": "%"},
      {"measurement": "Heavy chain total conversion", "setting": "[1]; [7]", "value": 97, "unit": "%"},
      {"measurement": "Light chain total conversion", "setting": "[1]; [7]", "value": "<1", "unit": "%"}
    ]}
  ]
}
